# Some of the results follow.
# B1: RfpB (Mycobacterium tuberculosum), O05594 (protein)
# chain: MAAGLVTASMSLSTAVAHAGPSPNWDAVAQCESGGNWAANTGNGKYGGLQFKPATWAAFGGVGNPAAASREQQIAVANRVLAEQGLDAWPTCGAASGLPIALWSKPAQGIKHAGPSPNWDAVAQCESGGNWAANTGNGKYGGLQFKPATWAAFGGVGNPAAASREQQIAVANRVLAEQGLDAWPTCGA
# What was measured:
# Assay in all cases: glycan array binding signal (z-score within array); higher = stronger binding
# Details in all cases: glycan notation: IUPAC condensed, linker removed
# [1] = biological target: Fuc(a1-2)[GalNAc(a1-3)]Gal(b1-4)Glc
# Outline: (§1)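 Negative Z-scores can be read as non-binding. The Z-score is calculated within each array and then averaged across arrays of one protein sequence at different concentrations or buffers and across linkers. Arrays, 3228 in all, were curated from the Consortium for Functional Glycomics database and kept only where the protein sequence was available.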
# [2] = biological target: Fuc(a1-2)[GalNAc(a1-3)]Gal(b1-4)GlcNAc
# Outline: as §1
# [3] = biological target: Fuc(a1-2)[GalNAc(a1-3)]Gal(b1-4)[Fuc(a1-3)]GlcNAc
# Outline: as §1
# [4] = biological target: Fuc(a1-2)[GalNAc(a1-4)]Gal(b1-4)GlcNAc
# Outline: as §1
# [5] = biological target: Fuc(a1-2)[GalNAc(b1-3)]Gal
# Outline: as §1
# [6] = biological target: Fuc(a1-3)GlcNAc
# Outline: as §1
# [7] = biological target: Fuc(a1-3)[Gal(b1-4)]Glc6S
# Outline: as §1
# [8] = biological target: Fuc(a1-3)[Gal(b1-4)]GlcNAc
# Outline: as §1
# [9] = biological target: Fuc(a1-3)[Gal(b1-4)]GlcNAc(b1-3)Gal(b1-3)[Fuc(a1-4)]GlcNAc
# Outline: as §1
# [10] = biological target: Fuc(a1-3)[Gal(b1-4)]GlcNAc(b1-4)Gal(b1-4)[Fuc(a1-3)]GlcNAc
# Outline: as §1
# [11] = biological target: Fuc(a1-3)[Gal(b1-4)]GlcNAc(b1-4)Gal(b1-4)[Fuc(a1-3)]GlcNAc(b1-4)Gal(b1-4)[Fuc(a1-3)]GlcNAc
# Outline: as §1
# [12] = biological target: Fuc(a1-3)[Gal(b1-4)]GlcNAc6S
# Outline: as §1
# [13] = biological target: Fuc(a1-3)[Gal3S(b1-4)]Glc6S
# Outline: as §1
# [14] = biological target: Fuc(a1-3)[Gal3S(b1-4)]GlcNAc
# Outline: as §1
# [15] = biological target: Fuc(a1-3)[Gal3S(b1-4)]GlcNAc6S
# Outline: as §1
# [16] = biological target: Fuc(a1-3)[GalNAc(b1-4)]GlcNAc
# Outline: as §1
# [17] = biological target: Fuc(a1-4)GlcNAc
# Outline: as §1
# [18] = biological target: Fuc(b1-3)GlcNAc
# Outline: as §1
# [19] = biological target: Gal(a1-2)Gal
# Outline: as §1
# [20] = biological target: Gal(a1-3)Gal
# Outline: as §1
# [21] = biological target: Gal(a1-3)Gal(b1-3)GlcNAc
# Outline: as §1
# [22] = biological target: Gal(a1-3)Gal(b1-4)Glc
# Outline: as §1
# [23] = biological target: Gal(a1-3)Gal(b1-4)GlcNAc
# Outline: as §1
# [24] = biological target: Gal(a1-3)Gal(b1-4)[Fuc(a1-3)]GlcNAc
# Outline: as §1
# [25] = biological target: Gal(a1-3)GalNAc
# Outline: as §1
# [26] = biological target: Gal(a1-3)[Gal(a1-4)]Gal(b1-4)GlcNAc
# Outline: as §1
# [27] = biological target: Gal(a1-4)Gal(b1-4)Glc
# Outline: as §1
# [28] = biological target: Gal(a1-4)Gal(b1-4)GlcNAc
# Outline: as §1
# [29] = biological target: Gal(a1-4)GlcNAc
# Outline: as §1
# [30] = biological target: Gal(a1-6)Glc
# Outline: as §1
# [31] = biological target: Gal(b1-2)Gal
# Outline: as §1
# [32] = biological target: Gal(b1-3)Gal
# Outline: as §1
# [33] = biological target: Gal(b1-3)Gal(b1-4)GlcNAc
# Outline: as §1
# [34] = biological target: Gal(b1-3)GalNAc
# Outline: as §1
# [35] = biological target: Gal(b1-3)GalNAc(b1-3)Gal(a1-4)Gal(b1-4)Glc
# Outline: as §1
# [36] = biological target: Gal(b1-3)GalNAc(b1-4)Gal(b1-4)Glc
# Outline: as §1
# [37] = biological target: Gal(b1-3)GalNAc(b1-4)[Neu5Ac(a2-3)]Gal(b1-4)Glc
# Outline: as §1
# [38] = biological target: Gal(b1-3)GlcNAc
# Outline: as §1
# [39] = biological target: Gal(b1-3)GlcNAc(b1-3)Gal(b1-3)GlcNAc
# Outline: as §1
# [40] = biological target: Gal(b1-3)GlcNAc(b1-3)Gal(b1-4)Glc
# Outline: as §1
# [41] = biological target: Gal(b1-3)GlcNAc(b1-3)Gal(b1-4)GlcNAc
# Outline: as §1
# [42] = biological target: Gal(b1-3)[Fuc(a1-4)]GlcNAc
# Outline: as §1
# [43] = biological target: Gal(b1-3)[Fuc(a1-4)]GlcNAc(b1-3)Gal(b1-3)[Fuc(a1-4)]GlcNAc
# Outline: as §1
# [44] = biological target: Gal(b1-3)[Fuc(a1-4)]GlcNAc(b1-3)Gal(b1-4)GlcNAc
# Outline: as §1
# [45] = biological target: Gal(b1-3)[Fuc(a1-4)]GlcNAc(b1-3)Gal(b1-4)[Fuc(a1-3)]GlcNAc
# Outline: as §1
binder,measurement,setting,value
B1,glycan array binding signal (z-score),[1],-0.175
same,glycan array binding signal (z-score),[2],-0.711
same,glycan array binding signal (z-score),[3],-0.686
same,glycan array binding signal (z-score),[4],0.593
same,glycan array binding signal (z-score),[5],0.213
same,glycan array binding signal (z-score),[6],0.071
same,glycan array binding signal (z-score),[7],0.452
same,glycan array binding signal (z-score),[8],-0.093
same,glycan array binding signal (z-score),[9],-0.065
same,glycan array binding signal (z-score),[10],1.25
same,glycan array binding signal (z-score),[11],0.15
same,glycan array binding signal (z-score),[12],-0.371
same,glycan array binding signal (z-score),[13],2.53
same,glycan array binding signal (z-score),[14],-0.263
same,glycan array binding signal (z-score),[15],0.11
same,glycan array binding signal (z-score),[16],-0.17
same,glycan array binding signal (z-score),[17],-0.442
same,glycan array binding signal (z-score),[18],-0.75
same,glycan array binding signal (z-score),[19],-0.546
same,glycan array binding signal (z-score),[20],-0.751
same,glycan array binding signal (z-score),[21],-0.569
same,glycan array binding signal (z-score),[22],-0.404
same,glycan array binding signal (z-score),[23],-0.667
same,glycan array binding signal (z-score),[24],-0.218
same,glycan array binding signal (z-score),[25],-0.21
same,glycan array binding signal (z-score),[26],0.986
same,glycan array binding signal (z-score),[27],-0.246
same,glycan array binding signal (z-score),[28],0.863
same,glycan array binding signal (z-score),[29],1.87
same,glycan array binding signal (z-score),[30],-0.413
same,glycan array binding signal (z-score),[31],1.32
same,glycan array binding signal (z-score),[32],-0.386
same,glycan array binding signal (z-score),[33],-0.801
same,glycan array binding signal (z-score),[34],-0.202
same,glycan array binding signal (z-score),[35],-0.147
same,glycan array binding signal (z-score),[36],-0.633
same,glycan array binding signal (z-score),[37],-0.402
same,glycan array binding signal (z-score),[38],-0.409
same,glycan array binding signal (z-score),[39],-0.528
same,glycan array binding signal (z-score),[40],-0.273
same,glycan array binding signal (z-score),[41],-0.624
same,glycan array binding signal (z-score),[42],-0.622
same,glycan array binding signal (z-score),[43],-0.599
same,glycan array binding signal (z-score),[44],-0.284
same,glycan array binding signal (z-score),[45],-0.244

# — the supplement of paper PMC8728848
